From publication PMC4336329 (PLoS ONE, 2015)
Hit rate of the full screen: of about 310,000 compounds, about 2,200 (0.71%) showed an effect of 50% or more. Effects have a minus sign here. The list shows a part of the results. Where a SMILES comes first, the peptide text is derived from it. The star is where a group is joined. Boc = CC(C)(C)OC(=O)*; Bn = c1ccc(C*)cc1

molecular target: human ether-à-go-go-related gene (hERG) potassium channel (human, UniProt Q12809); assay: primary screen, population patch clamp on CHO cells stably expressing hERG
Sequence (Q12809 whole entry, looked up): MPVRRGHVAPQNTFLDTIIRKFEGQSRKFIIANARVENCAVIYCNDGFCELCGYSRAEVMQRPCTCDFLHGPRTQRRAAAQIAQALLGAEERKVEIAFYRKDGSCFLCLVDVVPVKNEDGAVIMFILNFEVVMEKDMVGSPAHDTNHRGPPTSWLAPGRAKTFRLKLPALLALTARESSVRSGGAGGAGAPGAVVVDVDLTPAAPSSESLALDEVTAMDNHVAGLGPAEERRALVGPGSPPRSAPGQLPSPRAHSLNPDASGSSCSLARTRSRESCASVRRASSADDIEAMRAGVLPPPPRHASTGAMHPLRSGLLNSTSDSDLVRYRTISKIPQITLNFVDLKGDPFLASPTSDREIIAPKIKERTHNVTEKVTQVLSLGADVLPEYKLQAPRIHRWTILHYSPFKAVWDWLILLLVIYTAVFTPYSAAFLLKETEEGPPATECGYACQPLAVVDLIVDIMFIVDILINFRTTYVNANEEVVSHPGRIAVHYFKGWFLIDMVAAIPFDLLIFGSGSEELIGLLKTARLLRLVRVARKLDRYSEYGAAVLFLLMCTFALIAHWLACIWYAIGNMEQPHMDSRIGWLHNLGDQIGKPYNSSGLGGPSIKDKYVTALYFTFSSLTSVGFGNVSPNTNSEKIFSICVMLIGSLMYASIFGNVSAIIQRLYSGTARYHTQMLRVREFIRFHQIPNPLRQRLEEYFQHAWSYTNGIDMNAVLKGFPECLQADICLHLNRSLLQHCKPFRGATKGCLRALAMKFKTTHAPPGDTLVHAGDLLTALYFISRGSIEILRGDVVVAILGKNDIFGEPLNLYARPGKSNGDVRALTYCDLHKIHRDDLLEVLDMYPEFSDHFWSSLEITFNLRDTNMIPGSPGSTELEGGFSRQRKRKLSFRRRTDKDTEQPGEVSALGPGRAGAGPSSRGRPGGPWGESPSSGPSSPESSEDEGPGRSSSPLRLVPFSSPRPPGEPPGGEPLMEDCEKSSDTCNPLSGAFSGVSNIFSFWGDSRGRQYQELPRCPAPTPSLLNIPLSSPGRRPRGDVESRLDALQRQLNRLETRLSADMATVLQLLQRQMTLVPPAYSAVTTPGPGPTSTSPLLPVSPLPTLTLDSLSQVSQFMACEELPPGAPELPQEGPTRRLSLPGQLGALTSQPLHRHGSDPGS

**Q.** Which “hERG current change (%, negative = inhibition) at 1uM” value does the source give for CC(=O)c1c(C)n(Cc2ccccc2Cl)c2ccc(O)cc12 here?
**A.** Its value is 13.9%.

**Q.** For COc1ccc(C)cc1NC(=O)CN(C)S(=O)(=O)c1cnc[nH]1, which “hERG current change (%, negative = inhibition) at 1uM” value is on record?
**A.** The value was -4.88%.

**Q.** O=C(Cn1nc(C(F)(F)F)c2c1CCCC2)NCCN1CCOCC1 was tested. Which “hERG current change (%, negative = inhibition) at 1uM” value did it give?
**A.** The value was 2.39%.

**Q.** Which “hERG current change (%, negative = inhibition) at 1uM” value does the source give for Cc1cccc(C(=O)N2CCN(c3ccc([N+](=O)[O-])c(NCc4ccco4)c3)CC2)c1 here?
**A.** The value was 2.94%.

**Q.** CC(=O)N1c2ccc(S(=O)(=O)N3CCC(C(=O)N4CCN(c5ccccc5)CC4)CC3)cc2CC1C (centres unmarked) was tested. Which “hERG current change (%, negative = inhibition) at 1uM” value did it give?
**A.** The value was -11.4%.

**Q.** For C=CCNC(=O)/C(C#N)=C/c1c(N2CC(C)OC(C)C2)nc2ccccn2c1=O (centres unmarked), which “hERG current change (%, negative = inhibition) at 1uM” value is on record?
**A.** The value was 14.4%.

**Q.** With Cn1c(=O)c2c(ncn2CCc2ccccc2)n(C)c1=O as the molecule, how does the “hERG current change (%, negative = inhibition) at 1uM” value read?
**A.** Its value is 15.6%.

**Q.** How did the “hERG current change (%, negative = inhibition) at 1uM” value turn out when COc1ccc(-c2ccc(=O)n(Cc3ccc([N+](=O)[O-])cc3)n2)cc1 was run?
**A.** The value was -5.51%.

**Q.** C=CCNC(=S)N/N=C/c1ccc(-c2ccc(Br)cc2)o1 was tested. Which “hERG current change (%, negative = inhibition) at 1uM” value did it give?
**A.** Its value is 13.3%.

**Q.** How did the “hERG current change (%, negative = inhibition) at 1uM” value turn out when NC1=NC(=O)/C(=C/c2ccc(-c3ccc(S(N)(=O)=O)cc3)o2)S1 was run?
**A.** Its value is 12.5%.

**Q.** With CCOc1ccccc1NC(=O)C(OC(=O)c1ccccc1NS(=O)(=O)c1cccs1)c1ccccc1 (centres unmarked) as the molecule, how does the “hERG current change (%, negative = inhibition) at 1uM” value read?
**A.** Its value is 14.6%.

**Q.** For COC(=O)c1cc(NC(=O)C2CCCN(S(=O)(=O)c3c(C)n[nH]c3C)C2)cc(C(=O)OC)c1 (centres unmarked), which “hERG current change (%, negative = inhibition) at 1uM” value is on record?
**A.** Its value is 11.1%.

**Q.** For N=c1c2c(ncn1CCCO)Oc1c(ccc3ccccc13)C2c1ccccc1 (centres unmarked), which “hERG current change (%, negative = inhibition) at 1uM” value is on record?
**A.** Its value is -20.5%.

**Q.** For CCOc1ccc(N(CC(=O)NC2CCCC2)C(=O)CCCC(=O)Nc2ccccn2)cc1, which “hERG current change (%, negative = inhibition) at 1uM” value is on record?
**A.** Its value is 3.86%.

**Q.** O=C(Nc1ccccc1)c1cnc2n(c1=O)CCS2 was tested. Which “hERG current change (%, negative = inhibition) at 1uM” value did it give?
**A.** Its value is 3.96%.

**Q.** O=C(NCc1ccco1)/C(=C\c1cccnc1)NC(=O)c1ccccc1F was tested. Which “hERG current change (%, negative = inhibition) at 1uM” value did it give?
**A.** The value was -37%.

**Q.** For CC(C)CC(NC(=O)C(CC(C)C)NC(=O)C(Cc1ccc(OCc2ccccc2)cc1)NC(=O)OC(C)(C)C)C(N)=O (stereo not drawn) (Boc-Tyr(Bn)-Leu-Leu-NH2; configuration not given here), which “hERG current change (%, negative = inhibition) at 1uM” value is on record?
**A.** The value was 14.7%.

**Q.** How did the “hERG current change (%, negative = inhibition) at 1uM” value turn out when COC(=O)C(NC(=O)c1ccco1)(Nc1ccc(Br)cn1)C(F)(F)F (centres unmarked) was run?
**A.** Its value is 5.29%.

**Q.** Cc1csc(NC(=O)C2C3C=CC(C3)C2C(=O)O)n1 (centres unmarked) was tested. Which “hERG current change (%, negative = inhibition) at 1uM” value did it give?
**A.** The value was 3.5%.

**Q.** How did the “hERG current change (%, negative = inhibition) at 1uM” value turn out when CCCCOc1c(Br)cc(CNCCCN2CCOCC2)cc1OC.Cl was run?
**A.** The value was 6.48%.

**Q.** CCn1c(SCc2nc(-c3ccccc3)no2)nnc1-c1ccco1 was tested. Which “hERG current change (%, negative = inhibition) at 1uM” value did it give?
**A.** The value was -24.7%.

**Q.** How did the “hERG current change (%, negative = inhibition) at 1uM” value turn out when CCOC(=O)Cc1csc(NC(=O)COc2ccc(N(C)S(=O)(=O)c3cccs3)cc2)n1 was run?
**A.** Its value is -3.03%.

**Q.** Cc1c(C(=O)Nc2cccc([N+](=O)[O-])c2)sc2ncn(CC(=O)N3CCOCC3)c(=O)c12 was tested. Which “hERG current change (%, negative = inhibition) at 1uM” value did it give?
**A.** The value was 14.1%.

**Q.** How did the “hERG current change (%, negative = inhibition) at 1uM” value turn out when COc1cc(Cl)ccc1OCc1cc(C(=O)NCc2cc(C(C)C)no2)no1 was run?
**A.** The value was 7.81%.

**Q.** CC(=O)Nc1cccc(NC(=O)C2CCCN2C(=O)Nc2ccc(C)cc2)c1 (centres unmarked) was tested. Which “hERG current change (%, negative = inhibition) at 1uM” value did it give?
**A.** The value was 14.8%.

**Q.** CC(=O)NCc1ccc(C(=O)CCl)s1 was tested. Which “hERG current change (%, negative = inhibition) at 1uM” value did it give?
**A.** Its value is 7.93%.

**Q.** How did the “hERG current change (%, negative = inhibition) at 1uM” value turn out when COc1cc2cnc(-c3ccccc3)c(-c3cc(OC)c(OC)c(OC)c3)c2cc1OC was run?
**A.** The value was 14.7%.

**Q.** Cc1ccc2[nH]c(CNC(=O)C3CCCCC3)cc2c1 was tested. Which “hERG current change (%, negative = inhibition) at 1uM” value did it give?
**A.** Its value is 13.6%.

**Q.** For CC(C)C[C@H](NC(=O)c1nc[nH]c1C(=O)NCCCCCNC(=O)OC(C)(C)C)C(=O)OCc1ccccc1, which “hERG current change (%, negative = inhibition) at 1uM” value is on record?
**A.** Its value is 8.46%.

**Q.** Nc1nn2cc(-c3ccccc3)nc2c2ccccc12 was tested. Which “hERG current change (%, negative = inhibition) at 1uM” value did it give?
**A.** Its value is -4.86%.

**Q.** With Cn1cnc2c1c(=O)n(CC(O)CO)c(=O)n2C (centres unmarked) as the molecule, how does the “hERG current change (%, negative = inhibition) at 1uM” value read?
**A.** Its value is 20.3%.

**Q.** Cc1ccc(NC(=O)NNC(=O)COc2ccc([N+](=O)[O-])cc2)cc1C was tested. Which “hERG current change (%, negative = inhibition) at 1uM” value did it give?
**A.** The value was 3.75%.

**Q.** For O=C(O)c1ccc(/C=N/Nc2nc3ccccc3[nH]2)cc1, which “hERG current change (%, negative = inhibition) at 1uM” value is on record?
**A.** The value was 5.23%.

**Q.** For CCOC(=O)C1C(=O)NC(N2CCN(Cc3ccccc3)CC2)=NC1c1ccco1 (centres unmarked), which “hERG current change (%, negative = inhibition) at 1uM” value is on record?
**A.** Its value is 5.75%.

**Q.** Cc1ccc(C2=NOC(C)(c3nnc(-c4ccc(F)cc4)o3)C2)cc1 (centres unmarked) was tested. Which “hERG current change (%, negative = inhibition) at 1uM” value did it give?
**A.** Its value is 3.83%.

**Q.** How did the “hERG current change (%, negative = inhibition) at 1uM” value turn out when CN(Cc1ccccc1)C(=O)c1c[nH]c2ccc(S(=O)(=O)N3CCOCC3)cc2c1=O was run?
**A.** The value was 4.14%.

**Q.** With FC(F)(F)c1nc(N2CCCC2)ncc1-c1nnnn1-c1ccccc1 as the molecule, how does the “hERG current change (%, negative = inhibition) at 1uM” value read?
**A.** The value was 12.8%.

**Q.** For CCn1c(CSCc2ccc(F)cc2)nnc1SCC(=O)N1CCN(c2ccccc2)CC1, which “hERG current change (%, negative = inhibition) at 1uM” value is on record?
**A.** The value was -14.8%.

**Q.** How did the “hERG current change (%, negative = inhibition) at 1uM” value turn out when CC(C)(C)[C@H]1C=C(C(=O)N2CCN(Cc3ccc4c(c3)OCO4)CC2)O[C@@H](OCc2ccc(CO)cc2)C1 was run?
**A.** The value was -2.12%.

**Q.** Which “hERG current change (%, negative = inhibition) at 1uM” value does the source give for COc1ccc(S(=O)(=O)n2ccnc2C)c(C)c1C here?
**A.** Its value is 14.6%.

**Q.** O=[N+]([O-])c1ccccc1Nc1cccnc1 was tested. Which “hERG current change (%, negative = inhibition) at 1uM” value did it give?
**A.** Its value is 11.2%.

**Q.** Which “hERG current change (%, negative = inhibition) at 1uM” value does the source give for CCOC(=O)C1CCCN(C(=O)c2ccc(OC)c([N+](=O)[O-])c2)C1 (centres unmarked) here?
**A.** The value was 8.92%.

**Q.** For O=C(Nc1cccc(-n2cccn2)c1)C1CCCN(Cc2ccccc2F)C1 (centres unmarked), which “hERG current change (%, negative = inhibition) at 1uM” value is on record?
**A.** The value was 5.8%.

**Q.** With C/C(CC(=O)Nc1ccccn1)=N\NC(=O)c1cccc(C)c1 as the molecule, how does the “hERG current change (%, negative = inhibition) at 1uM” value read?
**A.** The value was 6.29%.
